Whole data set: some 33,000 sequences, median “E-score (-0.5 to 0.5)” near -0.017, cut for the highest 2% near 0.3. The list shows a part of the results.
biological target: T1, Sut1 (UniProt P53032); assay: PBM E-score (8-mer binding enrichment) (E-score (-0.5 to 0.5)); higher = stronger / more preferred TF binding; most listed sequences are background and not binding sites; conditions: protein concentration: 200 nM; construct: GST-full length
T1 sequence: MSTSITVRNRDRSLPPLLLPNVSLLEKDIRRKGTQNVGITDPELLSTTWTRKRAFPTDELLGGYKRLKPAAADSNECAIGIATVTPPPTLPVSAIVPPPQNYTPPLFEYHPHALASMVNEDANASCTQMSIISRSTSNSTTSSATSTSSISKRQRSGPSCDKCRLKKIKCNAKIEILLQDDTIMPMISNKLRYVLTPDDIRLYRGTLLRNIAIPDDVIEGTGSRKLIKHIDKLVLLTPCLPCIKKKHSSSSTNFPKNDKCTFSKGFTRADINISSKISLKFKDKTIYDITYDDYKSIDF
Procedure, shortened: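 Detection of bound protein used fluorescent anti-GST, with scans normalised by masliner. The proteins were GST-tagged yeast transcription factors applied at about 100-200 nM to universal all-10-mer Agilent arrays made double-stranded by primer extension. Each ungapped eight-base word, pooled with its reverse complement, was scored with an E-score from the Universal PBM Analysis Suite.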

| Sequence | PBM E-score |
| --- | --- |
| AAGAGGAT | -0.104 |
| ACAAGATC | -0.0402 |
| TACTGGCA | -0.145 |
| GAGGGCAA | -0.158 |
| AACCTACA | 0.173 |
| TACTCGGA | 0.324 |
| CACCTAGA | -0.153 |
| AGTCATTC | -0.004 |
| ATGCGACG | -0.136 |
| AGGAACAC | 0.101 |
| CTTACGAA | 0.111 |
| AGGTAGTA | -0.0238 |
| ACGCAGCG | -0.204 |
| CAGCCCGA | -0.211 |
| ATTCATCA | 0.173 |
| ACAGCCAG | -0.0428 |
| CGATGGAA | 0.0782 |
| AACACTGG | -0.107 |
| ACTCTTCC | -0.0775 |
| ACGCGGCC | -0.273 |
| CGGAAGGC | 0.0817 |
| GAGTAGAA | 0.22 |

| Sequence | PBM E-score |
| --- | --- |
| GAAGACCA | 0.149 |
| ATAAGAGC | 0.0743 |
| AGCCGTAA | 0.042 |
| GCGCACCA | -0.0911 |
| CCTGCTAA | -0.117 |
| TCTAAACA | 0.0637 |
| GTATGTCA | 0.12 |
| GAGCAGCC | -0.251 |
| AGGCCGTA | 0.0171 |
| CGCATGCA | -0.183 |
| AGCGGTGA | -0.0452 |
| AGTAATAA | 0.264 |
| ACTAAGAG | 0.109 |
| CAGAACAG | 0.058 |
| GATTTCGA | 0.013 |
| GAAATGCC | 0.015 |
| AGAAAGAC | 0.243 |
| AATAGTGC | 0.106 |
| CAGTACAC | -0.112 |
| CTACATCC | 0.082 |
| CATAAGTC | 0.122 |
| CCCCAACC | -0.288 |

| Sequence | PBM E-score |
| --- | --- |
| GGACGTCC | -0.0184 |
| CCCGGGAG | -0.175 |
| GACCAATC | -0.11 |
| GTGTCAGA | -0.0338 |
| ACTGCTCT | -0.2 |
| GTACTGCA | -0.177 |
| TCCCTGCA | -0.0928 |
| GACGTGCC | -0.329 |
| GTTGAGAA | 0.148 |
| ATTAACGG | 0.171 |
| ATGGCCTA | -0.0487 |
| AGGGGGTC | -0.412 |
| AGCATCGA | 0.0511 |
| AACATCTT | -0.028 |
| TGTGCGAA | -0.122 |
| ACCAGGCG | -0.0895 |
| GAAGTCTA | 0.0111 |
| ATGCAAGA | 9e-05 |
| AGGATAAT | 0.113 |
| GCAATGAC | -0.121 |
| TCCCACAA | 0.0545 |
| CGGTAGTC | 0.061 |

| Sequence | PBM E-score |
| --- | --- |
| AAAACATT | 0.14 |
| CCATTAAG | -0.0131 |
| CGGAGTAA | 0.483 |
| GACGTGGC | -0.317 |
| AATAACTA | 0.183 |
| CGTCGAGA | -0.159 |
| AGAAATAT | 0.17 |
| TAATAAGA | 0.279 |
| CTTATTCA | 0.057 |
| ATTAAAAT | 0.213 |
| ATCCCTGG | -0.271 |
| CGGGACTC | 0.0911 |
| AACATCGC | -0.177 |
| GCTTTGGA | 0.189 |
| AATTGGAT | 0.131 |
| CAACTCCA | 0.112 |
| GACCTCTA | -0.18 |
| CAAGTAGG | -0.298 |
| AAACACGC | 0.0836 |
| GTCATAAA | 0.199 |
